Data published in the supplement of paper PMC12217912.
Some of the results follow. Sequences were assembled here from the parent chain. Values near 0.05 are background.

B1: TEV protease; numbered along this chain (parent)
chain: MGESLFKGPRDYNPISSSICHLTNESDGHTTSLYGIGFGPFIITNKHLFRRNNGTLVVQSLHGVFKVKDTTTLQQHLVDGRDMIIIRMPKDFPPFPQKLKFREPQREERICLVTTNFQTKSMSSMVSDTSCTFPSGDGIFWKHWIQTKDGQCGSPLVSTRDGFIVGIHSASNFTNTNNYFTSVPKNFMELLTNQEAQQWVSGWRLNADSVLWGGHKVFMVKPEEPFQPVKEATQL

Variants of: B1
Test: raw area under fraction-flipped curve 0-4 h after induction (AUC4h, not background-subtracted), DNA-recorder readout of cleavage of the substrate (dimensionless); higher = more cleavage of the substrate by the protease variant
Conditions: temperature: 34 °C; time window: 0-4 h after rhamnose induction
Protocol: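 In vivo DNA recorder in E. coli TOP10(DE3) ΔrhaA at 34 °C. Each TEVp single-site mutant (parent TEVp 0) is paired with a single-site variant of the 7-mer TEVs (canonical ENLYFQ|S). The substrate sits between flexible linkers in a Bxb1-sfGFP-TEVs-SsrA fusion, so cleavage stabilises Bxb1 and speeds flipping of a recombination array, read by NGS. The value is the raw area under the fraction-flipped curve over 0-4 h after rhamnose induction (AUC4h), with ≥20 reads per time point. It is not background-subtracted; inactive controls average about 0.047.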
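Note: Bxb1 expression induced with 0.2% (w/v) L-rhamnose at OD600 near 0.5, cultures sampled hourly, flipped fraction per protease–substrate barcode pair counted by paired-end Illumina sequencing.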

| Variant | area with substrate EALYFQS | area with substrate ECLYFQS | area with substrate EDLYFQS | area with substrate EFLYFQS | area with substrate EGLYFQS | area with substrate EKLYFQS | area with substrate EMLYFQS | area with substrate EPLYFQS | area with substrate ERLYFQS | area with substrate ESLYFQS | area with substrate ETLYFQS | area with substrate EVLYFQS | area with substrate EELYFQS | area with substrate EHLYFQS | area with substrate EILYFQS | area with substrate ELLYFQS | area with substrate EQLYFQS | area with substrate EWLYFQS | area with substrate EYLYFQS |
| --- | --- | --- | --- | --- | --- | --- | --- | --- | --- | --- | --- | --- | --- | --- | --- | --- | --- | --- | --- |
| MGESLFKGPRDYNPISSSICHLTNESDGHTTSLYGIGFGPFIITNKHLFRRNNGTLVVQSLHGVFKVKDTTTLQQHLVDGRDMIIIRMPKDFPPFPQKLKFREPQREERICLVTTNFQTKSMSSMVSDTSCTFPSGDGIFWKHWIQTKDGQCGSPLVSTRDGFHVGIHSASNFTNTNNYFTSVPKNFMELLTNQEAQQWVSGWRLNADSVLWGGHKVFMVKPEEPFQPVKEATQL [I164H] | 0.0565 | 0.0384 | 0.0621 | 0.0317 | 0.0612 | 0.0534 | 0.0666 | 0.0597 | 0.0561 | 0.0455 | 0.0492 | 0.04 |  |  |  |  |  |  |  |
| MGESLFKGPRDYNPISSSICHLTNESDGHTTSLYGIGFGPFIITNKHLFRRNNGTLVVQSLHGVFKVKDTTTLQQHLVDGRDMIIIRMPKDFPPFPQKLKFREPQREERICLVTTNFQTKSMSSMVSDTSCTFPSGDGIFWKHWIQTKDGQCGSPLVSTRDGFLVGIHSASNFTNTNNYFTSVPKNFMELLTNQEAQQWVSGWRLNADSVLWGGHKVFMVKPEEPFQPVKEATQL [I164L] | 0.11 | 0.108 |  | 0.0852 |  | 0.0771 |  |  | 0.0991 | 0.0999 |  | 0.0823 | 0.1 | 0.129 | 0.0928 | 0.0843 | 0.0955 | 0.0792 | 0.099 |
| MGESLFKGPRDYNPISSSICHLTNESDGHTTSLYGIGFGPFIITNKHLFRRNNGTLVVQSLHGVFKVKDTTTLQQHLVDGRDMIIIRMPKDFPPFPQKLKFREPQREERICLVTTNFQTKSMSSMVSDTSCTFPSGDGIFWKHWIQTKDGQCGSPLVSTRDGFIDGIHSASNFTNTNNYFTSVPKNFMELLTNQEAQQWVSGWRLNADSVLWGGHKVFMVKPEEPFQPVKEATQL [V165D] | 0.0499 | 0.0568 |  | 0.0375 | 0.0485 | 0.0425 | 0.0533 | 0.0726 | 0.0354 | 0.0533 | 0.053 | 0.0547 | 0.0494 |  | 0.0417 |  |  | 0.0545 | 0.0438 |
| MGESLFKGPRDYNPISSSICHLTNESDGHTTSLYGIGFGPFIITNKHLFRRNNGTLVVQSLHGVFKVKDTTTLQQHLVDGRDMIIIRMPKDFPPFPQKLKFREPQREERICLVTTNFQTKSMSSMVSDTSCTFPSGDGIFWKHWIQTKDGQCGSPLVSTRDGFIVQIHSASNFTNTNNYFTSVPKNFMELLTNQEAQQWVSGWRLNADSVLWGGHKVFMVKPEEPFQPVKEATQL [G166Q] | 0.0463 | 0.0412 | 0.0484 | 0.0425 |  |  | 0.0286 | 0.0608 | 0.056 | 0.0112 | 0.0417 |  |  |  |  |  | 0.0482 |  |  |
| MGESLFKGPRDYNPISSSICHLTNESDGHTTSLYGIGFGPFIITNKHLFRRNNGTLVVQSLHGVFKVKDTTTLQQHLVDGRDMIIIRMPKDFPPFPQKLKFREPQREERICLVTTNFQTKSMSSMVSDTSCTFPSGDGIFWKHWIQTKDGQCGSPLVSTRDGFIVSIHSASNFTNTNNYFTSVPKNFMELLTNQEAQQWVSGWRLNADSVLWGGHKVFMVKPEEPFQPVKEATQL [G166S] | 0.0965 | 0.0519 | 0.046 | 0.0664 | 0.0437 | 0.0442 | 0.0596 | 0.0504 | 0.0422 | 0.0658 |  | 0.0571 | 0.0521 | 0.0802 | 0.0731 |  | 0.0559 |  |  |
| MGESLFKGPRDYNPISSSICHLTNESDGHTTSLYGIGFGPFIITNKHLFRRNNGTLVVQSLHGVFKVKDTTTLQQHLVDGRDMIIIRMPKDFPPFPQKLKFREPQREERICLVTTNFQTKSMSSMVSDTSCTFPSGDGIFWKHWIQTKDGQCGSPLVSTRDGFIVTIHSASNFTNTNNYFTSVPKNFMELLTNQEAQQWVSGWRLNADSVLWGGHKVFMVKPEEPFQPVKEATQL [G166T] | 0.0409 | 0.0517 |  |  | 0.0545 |  | 0.0477 |  |  | 0.0591 | 0.0641 | 0.0529 | 0.0511 | 0.0479 |  | 0.0532 | 0.0444 |  |  |
| MGESLFKGPRDYNPISSSICHLTNESDGHTTSLYGIGFGPFIITNKHLFRRNNGTLVVQSLHGVFKVKDTTTLQQHLVDGRDMIIIRMPKDFPPFPQKLKFREPQREERICLVTTNFQTKSMSSMVSDTSCTFPSGDGIFWKHWIQTKDGQCGSPLVSTRDGFIVGFHSASNFTNTNNYFTSVPKNFMELLTNQEAQQWVSGWRLNADSVLWGGHKVFMVKPEEPFQPVKEATQL [I167F] | 0.0805 | 0.0718 |  | 0.0782 | 0.099 | 0.0682 | 0.0823 | 0.0922 | 0.076 | 0.0838 | 0.0767 | 0.0814 | 0.121 | 0.0888 | 0.0604 | 0.0648 | 0.0801 | 0.0812 | 0.118 |
| MGESLFKGPRDYNPISSSICHLTNESDGHTTSLYGIGFGPFIITNKHLFRRNNGTLVVQSLHGVFKVKDTTTLQQHLVDGRDMIIIRMPKDFPPFPQKLKFREPQREERICLVTTNFQTKSMSSMVSDTSCTFPSGDGIFWKHWIQTKDGQCGSPLVSTRDGFIVGIHAASNFTNTNNYFTSVPKNFMELLTNQEAQQWVSGWRLNADSVLWGGHKVFMVKPEEPFQPVKEATQL [S169A] | 0.119 | 0.136 | 0.131 |  |  | 0.106 | 0.164 |  | 0.138 | 0.134 | 0.0972 | 0.127 | 0.15 | 0.127 | 0.0561 |  | 0.146 |  | 0.108 |
| MGESLFKGPRDYNPISSSICHLTNESDGHTTSLYGIGFGPFIITNKHLFRRNNGTLVVQSLHGVFKVKDTTTLQQHLVDGRDMIIIRMPKDFPPFPQKLKFREPQREERICLVTTNFQTKSMSSMVSDTSCTFPSGDGIFWKHWIQTKDGQCGSPLVSTRDGFIVGIHCASNFTNTNNYFTSVPKNFMELLTNQEAQQWVSGWRLNADSVLWGGHKVFMVKPEEPFQPVKEATQL [S169C] | 0.117 | 0.0912 | 0.118 |  |  | 0.0872 | 0.0703 |  | 0.0841 | 0.094 |  | 0.0853 | 0.109 | 0.1 | 0.0693 | 0.117 |  | 0.091 |  |
